About 1,700 (3.3%) of roughly 52,000 compounds were called active. Cut-off read from the data, not from the text of the source: active = survival mostly below about 52% (no sharp cut-off); inactive = mostly above about 56%. The list shows a part of the results.

The test system of this assay is Wild type. In words: growth inhibition of S. aureus wild type versus tarO mutant, primary screen, teichoic acid synthesis inhibitors, RN4220, OD600 (AID 463173). The following applies: S. aureus RN4220 wild type/DeltatarO growth, OD600, 18 h, active compounds read low, screened at 18.75 µg/mL (by protocol).
Turning to `CCCOc1ccc(Cn2c(=O)sc3ccccc32)cc1`, the survival is active: -4%.

For the compound `COc1ccccc1NC(=O)c1c(NC(=O)c2cccs2)sc2c1CCC(C(C)(C)C)C2` (stereo not given), the survival is inactive: 118%.

Take `Cc1cccc(N2CCN(C(=O)c3ccc4c(c3)N(Cc3cccc(Cl)c3)C(=O)c3ccccc3S4=O)CC2)c1C` (stereo not given): the survival is inactive: 128%. Turning to `Cc1ccc(-c2nc(SCC(=O)Nc3cc(C)on3)c3c(=O)n(C)c(=O)n(C)c3n2)cc1`, the survival is inactive: 92%. Regarding `O=C(CC(=O)Nc1ccccc1F)Nc1ccc2nc3n(c(=O)c2c1)CCCCC3`, the survival is inactive: 76%. Consider `CCc1ccc(OC(=O)c2sc3ncn(Cc4cccc(F)c4)c(=O)c3c2C)cc1`, for which the survival was inactive: 111%. The figure for `CCCCCNc1nc2c(-c3ccccc3)nnn2c2ccccc12` is inactive: 89%; for `CC(C)(C)C1=CC(CO)CC(CO)C1` (stereo not given) it is inactive: 107%; for `Cc1ccc(N2CCN(C(=O)Nc3cn(CC(C)C)c(=O)c4ccccc34)CC2)c(C)c1` it is inactive: 146%. The figure for `CC(C)CCn1c(=O)c2sccc2n2c(CCCC(=O)Nc3ccc(F)c(Cl)c3)nnc12` is inactive: 45%. The result for `O=C(NCc1ccc(F)cc1Cl)c1ccc(CSCc2ccccc2Cl)o1` reads inactive: 53%; that for `Cc1ccc(NC(=O)c2cc(-c3cccs3)nc3ccccc23)c(C)c1`, inactive: 68%. As to `CC(C)Oc1ccc(CNC(=O)c2cnc3sc(N4CCCCCC4)nn3c2=O)cc1`, the survival is inactive: 71%. The result for `COc1ccccc1NC(=O)Cn1c(=O)n(Cc2nc(C)no2)c(=O)c2cc3c(cc21)OCO3` reads inactive: 73%; that for `COc1ccccc1NC(=O)N1CCOc2ccccc21`, inactive: 86%; that for `Cc1cc(C)n2nc(CNS(=O)(=O)c3ccc(F)cc3)nc2n1`, inactive: 88%.

For `CCOc1ccc(/C=C/c2nc(C#N)c(N3CCCCCC3)o2)cc1`, the survival is inactive: 88%. On to `O=C(COc1ccccc1)N1CCNCC1`, for which the survival was inactive: 116%. For the compound `Cc1ccc(CNC(=O)c2ccc(CSCc3c(F)cccc3Cl)o2)cc1`, the survival was inactive: 72%.

With `CCn1c(C(=O)NCc2ccccc2)cc2sc(Cl)cc21`, the survival is active: 2%.

With `COc1cccc(CNC(=O)c2ccc(CN3CC(=O)N4CCCCC4C3=O)cc2)c1` (stereo not given), the survival is inactive: 72%. On to `COc1ccccc1/C=C(\C#N)C(=O)NCC1CCCO1` (stereo not given), for which the survival was inactive: 137%. The figure for `CCCN(CCC)CCNC(=O)Cn1cnc2sc(C)c(S(=O)(=O)N3CCN(c4ccccc4OC)CC3)c2c1=O` is inactive: 71%; for `COC(=O)c1cc2oc3ccccc3c2n1CC(=O)Nc1ccc(C)cc1Cl` it is inactive: 89%; for `CCOc1ccc(-n2c(SCC(=O)N3CCCc4ccccc43)nc3c([nH]c4ccccc43)c2=O)cc1` it is inactive: 65%.

Values taken from PubChem BioAssay AID463173 (ICCB-Longwood Screening Facility, Harvard Medical School, 2010).
